In all, about 230,000 compounds went through this assay and about 3,600 (1.6%) were called active. The shares of active, inactive and inconclusive entries below differ from those in the screen. Calls come from the whole dose curve; as a rule, active = well fitted inhibition curve with a large enough effect (not every such curve was filed as active); inconclusive = small, poorly fitted or top-dose-only effect, or another doubt; inactive = no such curve, though single readings can be large or run the other way. Where the call is inconclusive, the potency comes from a doubtful curve fit.
target: Lysine-specific demethylase 4E (Homo sapiens) (UniProt B2RXH2); assay: qHTS Assay for Inhibitors of Human Jumonji Domain Containing 2E (JMJD2E); details: JMJD2E catalytic domain, FDH-coupled NADH fluorescence (FDH is formaldehyde dehydrogenase); series mostly up to 57.1 µM
Note: nearly all actives have a fitted effect of over 50% in size.
Potency is the fitted concentration of half-maximal effect; tags give direction and shape of the fitted curve.

UniProt B2RXH2, sequence (B2RXH2 whole entry, looked up, the tested form may be a part): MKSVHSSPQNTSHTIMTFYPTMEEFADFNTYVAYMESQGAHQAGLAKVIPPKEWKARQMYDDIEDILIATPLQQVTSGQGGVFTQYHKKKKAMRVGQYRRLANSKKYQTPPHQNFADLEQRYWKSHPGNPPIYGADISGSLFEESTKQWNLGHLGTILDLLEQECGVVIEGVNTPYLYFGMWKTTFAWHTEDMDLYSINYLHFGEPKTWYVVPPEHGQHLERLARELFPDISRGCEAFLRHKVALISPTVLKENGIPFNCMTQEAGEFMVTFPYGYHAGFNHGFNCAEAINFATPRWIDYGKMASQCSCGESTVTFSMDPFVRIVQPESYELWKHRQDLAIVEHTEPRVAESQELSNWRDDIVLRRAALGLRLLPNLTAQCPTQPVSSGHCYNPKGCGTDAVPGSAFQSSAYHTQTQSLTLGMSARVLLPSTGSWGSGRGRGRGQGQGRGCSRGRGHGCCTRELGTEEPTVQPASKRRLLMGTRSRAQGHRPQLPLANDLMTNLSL

SMILES	Potency
COc1ccc(S(=O)(=O)N2CCOCC2)cc1NC(=O)c1cccc2c(=O)c(C)c(-c3ccccc3)oc12	inconclusive: 20 µM [inhibitor, partial curve]
O=C(Cc1noc2ccccc12)NNC(=S)Nc1ccc(Cl)cc1	inconclusive: 39.8 µM [inhibitor, single point]
N#CC1=C(N)C(C#N)(C#N)[C@H](c2cccnc2)[C@H]2CN(C(=O)OCc3ccccc3)CC=C12	inconclusive: 31.6 µM [inhibitor, partial curve]
O=c1oc2ccccc2c(O)c1/C=C1\C=Nc2ccccc21	inactive
CCOC(=O)c1c(NC(=O)C2COc3ccccc3O2)sc2c1CCN(Cc1ccccc1)C2 (centres undefined)	inconclusive: 22.4 µM [inhibitor, partial curve]
O=C(COC(=O)c1ccc[nH]c1=O)NCCc1ccc(F)cc1	inconclusive: 28.2 µM [inhibitor, single point]
CCCCC(=O)NC(=S)NNC(=O)c1ccc(OC)cc1	inconclusive: 39.8 µM [inhibitor, single point]
COCCNc1nc(-n2nc(C)cc2C)nc2sc3c(c12)CCCC3	inconclusive: 31.6 µM [inhibitor, partial curve]
COc1cc(NC(=S)Nc2cccnc2)cc(OC)c1	inactive
Nc1nonc1-n1nnc(C(=O)O)c1-c1cccs1	inconclusive: 28.2 µM [inhibitor, single point]
CC(C)c1ccc(C(=O)NCCCN(C)C)cc1	inactive
CS/C(N)=N/N=C/c1cc(Br)cc(Br)c1O	inconclusive: 39.8 µM [inhibitor, single point]
COc1ccccc1/C=C/C=N/NC(=O)c1ccncc1	inconclusive: 35.5 µM [inhibitor, single point]
CC1(C)Cc2c(c(-c3ccco3)[nH]c(=O)c2C#N)CS1	inconclusive: 25.1 µM [inhibitor, partial curve]
Cc1nc2ncnn2c(C)c1CCC(=O)N1CCc2ccccc2C1	inactive
CCCCN1CCCC1CNC(=O)c1cc(C#N)c2ccccc2c1OC (centres undefined)	inconclusive: 39.8 µM [inhibitor, single point]
Cc1ccc(/C=N/Nc2ccc(C(=O)O)cc2)s1	inconclusive: 39.8 µM [inhibitor, single point]
Cc1ccccc1NC(=O)CN1C(=O)S/C(=C\c2ccc(-c3cc(C(=O)O)ccc3C)o2)C1=O	inactive
O=C(CNC(=O)C1CCCCC1)OCc1cc(=O)oc2ccc3ccccc3c12	inconclusive: 12.6 µM [inhibitor, partial curve]
